According to a collection of fitness landscapes (doi:10.1016/j.celrep.2020.107928):
In all, about 81,000 sequences were measured (“one-hybrid fitness for binding parS DNA”: median about -0.17, highest 2% from about 0.51 on). The list shows a part of the results.

B1: Caulobacter ParB omega fusion; a variant is named by its letters at X, in order, B8GW30 (parent)
chain: MESVVVGEPGMSEGRRGLGRGLSALLGEVDAAPAQAPGEQLGGSREAPIEILQRNPDQPRRTFREEDLEDLSNSIREKGVLQPILVRPSPDTAGEYQIVAGERAWRAAQRAGLKTVPIMVRELDDLAVLEIGIIENVQRADLNVLEEALSYKVLMEKFERTQENIAQTIGKSXSHVANXMRLLXLPDEVQSYLVSGELTAXHARAIAAAADPVALAKQIIEGGLSVRETEALARKAPNLSAGKSKGGRPPRVKDTDTQALESDLSSVLGLDVSIDHRGSTGTLTITYATLEQLDDLCNRLTRGI

Variants of: B1
Assay: one-hybrid fitness for binding parS DNA (scaled: cognate 1, non-cognate 0); higher = stronger binding
Conditions: with parS DNA site
Method in brief: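 Values were rescaled so that cognate is 1 and non-cognate is 0. Each is a fitness, the log change in a variant's read ratio to wild type from Illumina reads of plasmids before and after selection, with three replicate libraries pooled and variants under 10 reads dropped. Selection of the Caulobacter ParB libraries, four specificity codons randomised, used E. coli USO with a HIS3 reporter, site 19 bp from the promoter, on M9-minus-histidine with 0.1 mM IPTG and 5 mM 3-AT for 48 hours at 37°C.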

Point of comparison: RCTG, “one-hybrid fitness for binding parS DNA” value 1.02. Against it:
- ALGS — lower, ≤ 0.2
- AVDI — lower, ≤ 0.2
- GLDV — lower, ≤ 0.2
- RDTN — lower, ≤ 0.2
- HHDK — lower, ≤ 0.2
- MWRC — lower, ≤ 0.2
- EYLC — lower, ≤ 0.2
- VMWS — lower, ≤ 0.2
- HVLT — lower, ≤ 0.2
- RWAC — lower, 0.721
- VHRT — lower, ≤ 0.2
- YTFS — lower, ≤ 0.2
- QYPP — lower, ≤ 0.2
- YTIR — lower, ≤ 0.2
- QMRH — lower, ≤ 0.2
- RAQD — lower, ≤ 0.2
- PGPK — lower, ≤ 0.2
- IEAL — lower, ≤ 0.2
- WMHT — lower, ≤ 0.2
- QGRT — lower, ≤ 0.2
- SSDY — lower, ≤ 0.2
- LNYF — lower, ≤ 0.2
- KRWK — lower, ≤ 0.2
- LIIE — lower, ≤ 0.2
- WIIC — lower, ≤ 0.2
- SHQT — lower, ≤ 0.2
- PPAI — lower, ≤ 0.2
- TATQ — lower, ≤ 0.2
- CQQR — lower, ≤ 0.2
- PARC — lower, ≤ 0.2
- QSCR — lower, ≤ 0.2
- EMQR — lower, ≤ 0.2
- CYST — lower, ≤ 0.2
- ATLN — lower, ≤ 0.2
- CNCY — lower, ≤ 0.2
- DPPY — lower, ≤ 0.2
- WTWC — lower, ≤ 0.2
- FQTK — lower, ≤ 0.2
- ADQC — lower, ≤ 0.2
- NRYA — lower, ≤ 0.2
- ESHK — lower, ≤ 0.2
- EING — lower, ≤ 0.2
- VVER — lower, ≤ 0.2
- PETN — lower, ≤ 0.2
- LDTI — lower, ≤ 0.2
- GLFN — lower, ≤ 0.2
- SADC — lower, ≤ 0.2
- RHYA — lower, 0.562
- LPKA — lower, ≤ 0.2
- PEPR — lower, ≤ 0.2
- VSET — lower, ≤ 0.2
- QPAS — lower, ≤ 0.2
- KCRY — lower, ≤ 0.2
- EAPS — lower, ≤ 0.2
- MHFS — lower, ≤ 0.2
- GMNS — lower, ≤ 0.2
- GHVQ — lower, ≤ 0.2
- LMPC — lower, ≤ 0.2
- GMSW — lower, ≤ 0.2
- LDYC — lower, ≤ 0.2
- ALEF — lower, ≤ 0.2
- RYVQ — lower, ≤ 0.2
- PAHG — lower, ≤ 0.2
- VFES — lower, 0.227
- MMVR — lower, ≤ 0.2
- RNVP — lower, ≤ 0.2
- EYSK — lower, ≤ 0.2
- QDHQ — lower, ≤ 0.2
- VQTM — lower, ≤ 0.2
- TDGG — lower, ≤ 0.2
- SNTF — lower, ≤ 0.2
- IRVA — lower, ≤ 0.2
- WMTL — lower, ≤ 0.2
- QIQR — lower, ≤ 0.2
- DTHC — lower, ≤ 0.2
- LLWG — lower, ≤ 0.2
- KAAT — lower, ≤ 0.2
- MEPF — lower, ≤ 0.2
- VSTS — lower, ≤ 0.2
- EMER — lower, ≤ 0.2
- TSKA — lower, ≤ 0.2
- IDAR — lower, ≤ 0.2
- CALV — lower, ≤ 0.2
